No constants are given. Whether binding was seen depends on the method and setting. In cells and extracts the contact can be indirect. Some results given as binding are weak or reduced against the parent protein; the word gives no strength. For some assays here: Sequences can lack the tags named with a protein.
Key:
Test in all cases: co-IP; N. benthamiana leaves transiently co-expressing the transgenes (35S promoter), 48 h postinfiltration, no crosslinking; YFP fusion held on GFP-Trap agarose; where noted leaves given 10 min high blue light (~50 umol m^-2 s^-1) or darkness before extraction
[1] = molecular target: Phototropin2 (Phot2), transiently expressed in N. benthamiana leaves (Arabidopsis thaliana) (UniProt P93025)
[2] = molecular target: T1, N-terminally YFP-tagged KAC1 (YFP:KAC1) (Arabidopsis thaliana) (UniProt Q9LX99)
T1 sequence: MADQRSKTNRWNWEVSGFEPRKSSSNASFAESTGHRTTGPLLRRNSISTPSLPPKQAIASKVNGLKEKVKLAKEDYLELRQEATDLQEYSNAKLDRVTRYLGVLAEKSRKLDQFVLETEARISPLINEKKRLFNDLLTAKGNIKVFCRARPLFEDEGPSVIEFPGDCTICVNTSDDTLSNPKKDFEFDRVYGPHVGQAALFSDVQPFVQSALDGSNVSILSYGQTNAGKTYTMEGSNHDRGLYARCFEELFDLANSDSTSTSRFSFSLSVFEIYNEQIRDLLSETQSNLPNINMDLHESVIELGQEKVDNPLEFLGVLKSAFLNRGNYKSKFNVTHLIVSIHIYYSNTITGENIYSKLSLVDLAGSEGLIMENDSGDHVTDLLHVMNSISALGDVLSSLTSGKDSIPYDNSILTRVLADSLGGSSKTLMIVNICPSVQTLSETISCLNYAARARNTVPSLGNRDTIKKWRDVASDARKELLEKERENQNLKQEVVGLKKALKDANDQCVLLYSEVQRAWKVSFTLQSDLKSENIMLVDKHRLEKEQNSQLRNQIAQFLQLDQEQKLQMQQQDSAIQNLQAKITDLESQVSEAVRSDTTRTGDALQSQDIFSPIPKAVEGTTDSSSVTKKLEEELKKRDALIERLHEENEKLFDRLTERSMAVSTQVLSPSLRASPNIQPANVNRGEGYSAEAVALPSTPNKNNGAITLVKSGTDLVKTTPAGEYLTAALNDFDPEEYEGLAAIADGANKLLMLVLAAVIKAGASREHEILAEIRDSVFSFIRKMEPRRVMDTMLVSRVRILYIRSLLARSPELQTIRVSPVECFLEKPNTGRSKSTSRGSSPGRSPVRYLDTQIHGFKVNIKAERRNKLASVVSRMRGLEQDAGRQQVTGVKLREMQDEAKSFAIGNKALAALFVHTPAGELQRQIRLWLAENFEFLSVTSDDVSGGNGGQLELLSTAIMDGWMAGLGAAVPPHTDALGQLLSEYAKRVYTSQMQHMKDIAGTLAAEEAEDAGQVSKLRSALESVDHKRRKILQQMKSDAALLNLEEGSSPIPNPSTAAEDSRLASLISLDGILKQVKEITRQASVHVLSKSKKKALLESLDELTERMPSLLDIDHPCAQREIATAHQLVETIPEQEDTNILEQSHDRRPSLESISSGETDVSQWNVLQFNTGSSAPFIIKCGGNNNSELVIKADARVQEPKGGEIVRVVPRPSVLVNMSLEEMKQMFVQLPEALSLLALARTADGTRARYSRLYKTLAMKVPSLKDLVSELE

By UniProt entry, the sequences of proteins in these tests, tags left out.
UniProt P93025: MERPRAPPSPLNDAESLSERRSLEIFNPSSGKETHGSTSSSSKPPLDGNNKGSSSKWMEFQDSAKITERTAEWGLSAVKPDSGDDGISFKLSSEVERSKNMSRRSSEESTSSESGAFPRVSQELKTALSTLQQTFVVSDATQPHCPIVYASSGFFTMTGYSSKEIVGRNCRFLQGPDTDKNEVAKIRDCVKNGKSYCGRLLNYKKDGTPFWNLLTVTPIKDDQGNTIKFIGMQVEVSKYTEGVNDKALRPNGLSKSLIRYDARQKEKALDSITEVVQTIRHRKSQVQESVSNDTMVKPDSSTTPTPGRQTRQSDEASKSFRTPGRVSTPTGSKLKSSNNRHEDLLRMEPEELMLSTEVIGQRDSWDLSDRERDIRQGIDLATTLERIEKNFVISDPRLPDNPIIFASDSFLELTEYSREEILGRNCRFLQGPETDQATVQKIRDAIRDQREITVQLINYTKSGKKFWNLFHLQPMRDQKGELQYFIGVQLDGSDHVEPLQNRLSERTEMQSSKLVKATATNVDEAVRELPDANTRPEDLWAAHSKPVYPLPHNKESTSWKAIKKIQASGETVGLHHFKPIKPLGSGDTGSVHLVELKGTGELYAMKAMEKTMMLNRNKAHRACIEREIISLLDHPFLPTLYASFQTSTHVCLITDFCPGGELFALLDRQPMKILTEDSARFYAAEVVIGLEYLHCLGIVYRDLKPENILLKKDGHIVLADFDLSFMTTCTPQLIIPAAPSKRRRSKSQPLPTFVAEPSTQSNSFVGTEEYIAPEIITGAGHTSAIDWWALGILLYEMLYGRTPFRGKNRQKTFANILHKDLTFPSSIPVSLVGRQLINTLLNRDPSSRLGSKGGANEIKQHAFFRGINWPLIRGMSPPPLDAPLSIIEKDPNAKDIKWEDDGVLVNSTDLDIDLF
UniProt P42643: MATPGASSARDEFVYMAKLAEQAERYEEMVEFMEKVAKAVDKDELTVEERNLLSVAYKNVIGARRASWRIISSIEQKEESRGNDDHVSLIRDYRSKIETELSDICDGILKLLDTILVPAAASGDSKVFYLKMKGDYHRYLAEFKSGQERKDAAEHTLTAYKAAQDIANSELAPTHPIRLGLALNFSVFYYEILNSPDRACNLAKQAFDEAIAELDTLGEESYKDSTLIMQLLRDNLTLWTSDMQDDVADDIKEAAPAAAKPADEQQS
UniProt P48348: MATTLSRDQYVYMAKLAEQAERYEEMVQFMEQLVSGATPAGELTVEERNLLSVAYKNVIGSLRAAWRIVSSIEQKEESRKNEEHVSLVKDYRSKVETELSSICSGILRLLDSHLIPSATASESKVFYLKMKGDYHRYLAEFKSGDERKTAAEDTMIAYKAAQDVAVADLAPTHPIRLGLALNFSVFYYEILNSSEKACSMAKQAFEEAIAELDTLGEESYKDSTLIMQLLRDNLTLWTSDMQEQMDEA
UniProt P48349: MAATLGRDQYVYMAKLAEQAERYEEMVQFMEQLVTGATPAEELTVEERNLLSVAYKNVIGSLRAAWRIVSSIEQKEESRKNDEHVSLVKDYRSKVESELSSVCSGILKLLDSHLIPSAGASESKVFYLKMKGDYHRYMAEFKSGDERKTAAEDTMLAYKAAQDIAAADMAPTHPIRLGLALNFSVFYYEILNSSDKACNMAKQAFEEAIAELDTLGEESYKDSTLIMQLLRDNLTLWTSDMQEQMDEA
UniProt Q01525: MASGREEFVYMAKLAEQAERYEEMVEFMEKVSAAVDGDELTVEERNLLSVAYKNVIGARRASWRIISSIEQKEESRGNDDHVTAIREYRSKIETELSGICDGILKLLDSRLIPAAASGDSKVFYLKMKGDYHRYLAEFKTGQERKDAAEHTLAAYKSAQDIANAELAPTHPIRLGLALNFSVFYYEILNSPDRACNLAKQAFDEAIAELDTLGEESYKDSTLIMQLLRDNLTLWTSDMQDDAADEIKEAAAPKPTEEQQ

[3] = molecular target: T2, PMI1 fused with YFP (PMI1:YFP) (Arabidopsis thaliana) (UniProt Q9C8E6)
T2 sequence: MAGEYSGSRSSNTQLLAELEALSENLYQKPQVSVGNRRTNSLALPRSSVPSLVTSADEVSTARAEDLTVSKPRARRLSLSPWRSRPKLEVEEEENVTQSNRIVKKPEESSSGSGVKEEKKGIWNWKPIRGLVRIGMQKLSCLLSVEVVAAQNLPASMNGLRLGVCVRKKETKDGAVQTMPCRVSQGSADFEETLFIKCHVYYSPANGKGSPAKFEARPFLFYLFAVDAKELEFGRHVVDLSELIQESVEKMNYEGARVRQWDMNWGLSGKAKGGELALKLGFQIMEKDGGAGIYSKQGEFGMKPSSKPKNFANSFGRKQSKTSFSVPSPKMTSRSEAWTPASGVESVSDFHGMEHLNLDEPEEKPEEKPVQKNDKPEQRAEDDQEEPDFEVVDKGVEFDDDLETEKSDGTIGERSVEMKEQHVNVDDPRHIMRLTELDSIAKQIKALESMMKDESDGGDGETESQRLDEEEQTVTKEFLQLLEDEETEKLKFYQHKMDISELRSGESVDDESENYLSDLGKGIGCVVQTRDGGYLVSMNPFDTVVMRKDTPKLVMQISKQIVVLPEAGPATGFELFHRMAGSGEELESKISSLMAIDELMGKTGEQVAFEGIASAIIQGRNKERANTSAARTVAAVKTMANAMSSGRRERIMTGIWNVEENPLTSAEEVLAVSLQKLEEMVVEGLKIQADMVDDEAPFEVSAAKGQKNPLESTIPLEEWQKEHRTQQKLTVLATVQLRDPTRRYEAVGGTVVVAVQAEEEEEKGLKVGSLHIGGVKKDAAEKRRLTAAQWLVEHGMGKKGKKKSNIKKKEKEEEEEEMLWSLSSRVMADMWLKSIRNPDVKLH

Substance | binding [1] | binding [2] | binding [3]
14-3-3 CHI, expressed in N. benthamiana leaves (tag not stated) (from UniProt P42643 1-267) | no binding | – | –
14-3-3 KAPPA with HA tag (KAPPA:HA) (from UniProt P48348 1-248) | no binding | binds | binds
14-3-3 LAMBDA, expressed in N. benthamiana leaves (tag not stated) (from UniProt P48349 1-248) | no binding | – | –
14-3-3 OMEGA with HA tag (OMEGA:HA) (from UniProt Q01525 1-259) | no binding | binds | binds
